Test results: PubChem BioAssay AID938 (National Center for Advancing Translational Sciences (NCATS), 2007)
Screen size: about 73,000 compounds; about 1,800 (2.5%) were called active. Another 13% or so got no clear call; they are omitted. Calls follow the shape of the dose curve; as a rule, active = well fitted activation curve with a large enough effect; inconclusive = small, poorly fitted or top-dose-only effect; inactive = no such curve, though single readings can be large or run the other way. The entries are a selection whose mix differs from that of the whole data set.

assay: qHTS Assay for Agonists of the Thyroid Stimulating Hormone Receptor: Activators of Intracellular cAMP Concentrations in Parental HEK 293; settings: parental HEK293 CNG cAMP sensor, membrane potential fluorescence; series mostly up to 57.1 µM; activation: at the top concentration; also: nearly all actives have a fitted effect of over 55% in size; as to activation: % of control where 0% means no effect
In short: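 Counterscreen for endogenous-receptor signalling: CNG-channel HEK 293 cells report cAMP rise by membrane depolarization. After 60 min dye equilibration with 100 uM RO 20-1724, compounds incubated 30 min before bottom-read fluorescence at 590 nm.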
Potency is read from the fitted curve at half-maximal effect.

Compound	Potency	activation
CC[C@@H]1Cc2cc(O)ccc2C2=C1c1ccc(O)cc1C[C@H]2CC	active: 6.31 µM	
COC(=O)c1cn[nH]c1N		inactive: 2.07%
CCCCCCC=O		inactive: -9.15%
Cc1[nH]c2ccc(-c3nnc(SCC(=O)N4CCCc5ccccc54)o3)cc2c1C		inactive: -1.97%
CCc1ccc(-c2nnn(CCC(=O)OC)n2)cc1	active: 7.94 µM	
C[C@@H](C(=O)NCC1CC1)[C@H]1C[C@]1(C)[C@H](NC(=O)OCc1ccccc1)c1ccccc1	active: 10 µM	
COC(=O)[C@@H]1[C@H]2C[C@H]3c4[nH]c5cc(OC)ccc5c4CCN3C[C@@H]2C[C@@H](OC(=O)c2cc(OC)c(OC)c(OC)c2)[C@@H]1OC	inactive	
CN(C)c1ccc(C(=N)c2ccc(N(C)C)cc2)cc1		inactive: 4.86%
COC(=O)[C@H](Cc1ccccc1)NC(=O)[C@H]1C[C@@H]1[C@H](NC(=O)OCc1ccccc1)c1ccccc1	active: 15.8 µM	
COc1ccc(N2CCN(C(=O)CSc3nnc(C)c(=O)[nH]3)CC2)cc1	active: 1.26 µM	
Cc1ccc(-c2nnn(CC(=O)Nc3cccc4cccnc34)n2)o1	active: 25.1 µM	
O=C1Nc2ccc(I)cc2/C1=C/c1cc(Br)c(O)c(Br)c1	inactive	
CN(C)CCNc1c2c(c(C#N)c3nc4ccccc4n13)CCCC2		inactive: -93.8%
O=C(NCc1ccc2c(c1)OCO2)c1ccc2snnc2c1	active: 7.94 µM	
CNc1nc(-c2ccc(N(C)C)cc2)nc2ccccc12		inactive: -72%
Cc1ccc2nc(-c3cccc(S(=O)(=O)N(C)C)c3)cn2c1	active: 25.1 µM	
O=c1c2cccnc2[nH]c(=S)n1CCCN1CCN(c2ccccc2F)CC1		inactive: -61.4%
O=C(O)c1cc([N+](=O)[O-])ccc1NCCCc1ccccc1		inactive: 20.7%
CCN1C(=O)/C(=c2\o/c(=C3\C=Cc4ccccc4N3CC)c(=O)n2CC)SC1=S		inactive: -26.8%
CC(C)(C)[C@@]1(O)CCN2C[C@@H]3c4ccccc4CCc4cccc(c43)[C@@H]2C1		inactive: 27.2%
COc1cccc(-c2nc(CS(=O)(=O)CC(=O)Nc3cc(C)ccc3C)c(C)o2)c1		inactive: 13.4%
c1ccc2c(c1)ccc1ccccc12		inactive: 34.5%
CN(C)c1nc(N)c(C(=O)N=C(N)N)nc1Cl	active: 25.1 µM	
O=C(NCCN1CCc2ccccc2C1)C1CCN(S(=O)(=O)N2CCCCC2)CC1		inactive: -44.6%
CN1CCN(c2nc(-c3ccc(N(C)C)cc3)nc3ccccc23)CC1		inactive: -89.1%
Oc1ccc([C@@H]2CNCCc3c2cc(O)c(O)c3Cl)cc1		inactive: 7%

Compound	Potency	activation
Cc1ccc(C)c(OCCCC(C)(C)C(=O)O)c1		inactive: 2.75% [at 25.6 µM]
CCOC(=O)C1=C[C@@]2(CC)CCCN3CCc4c(n1c1ccccc41)[C@H]32	inactive	
CN(C)Cc1ccccc1		inactive: 14.8%
CCn1c(Cn2nnc(-c3ccccc3)n2)nnc1SCC(=O)Nc1ccc(C(C)=O)cc1		inactive: -38%
CCCCCCn1c(SCC(C)C)nc2c1c(=O)[nH]c(=O)n2C	active: 25.1 µM	
CC(C)=CC1C(C(=O)Nc2ccc(Br)cn2)C1(C)C (stereo not drawn)	active: 25.1 µM	
CC[C@H](C)N(C)C(=O)c1cc2ccccc2c(-c2ccccc2Cl)n1		inactive: 0.879%
CN(C)CCC(c1ccc(Cl)cc1)c1ccccn1 (stereo not drawn)		inactive: 18%
COC1=CC(=O)C[C@@H](C)[C@]12Oc1c(Cl)c(OC)cc(OC)c1C2=O		inactive: 46.8%
CCCC(CCC)C(=O)O		inactive: 13.3%
Cc1cc(-c2ccc(N=Nc3cc(S(=O)(=O)O)c4ccccc4c3N)c(C)c2)ccc1N=Nc1cc(S(=O)(=O)O)c2ccccc2c1N		inactive: -37.3%
CCc1nc2oc(C(=O)c3ccccc3)c(N)c2c2c1COC(C)(C)C2		inactive: 0.422% [at 11.4 µM]
FC(F)(F)c1cnc(Nc2ccc(N3CCOCC3)cc2)c(Cl)c1		inactive: -33.4%
Cc1cc(C)c2nc(-c3ccccn3)cc(C(=O)NCc3ccco3)c2c1	active: 25.1 µM	
CCCCOc1ccccc1NC(=O)c1ccco1	active: 15.8 µM	
N#Cc1nc(-c2ccco2)oc1N1CCc2ccccc2C1	active: 25.1 µM	
CCC(=O)N1c2ccc(S(=O)(=O)CCC(=O)NCCC3=CCCCC3)cc2CC1C (stereo not drawn)		inactive: 7.28%
COC(=O)[C@@]1(C)C=C[C@@H](Cc2ccccc2)N1C(=O)c1ccccc1	active: 20 µM	
CCC(C)(C)NC(=O)C(c1ccc(C)o1)N(Cc1cccs1)C(=O)Cn1nnc2ccccc21 (stereo not drawn)	active: 15.8 µM	
CC(C)n1c(C(=O)OCC(=O)NCc2ccc3c(c2)OCO3)cc2sccc21	active: 7.94 µM	
CCN1CCCC1CNC(=O)c1cc(S(=O)(=O)CC)c(N)cc1OC (stereo not drawn)		inactive: -56.7%
CCC(=O)Nc1ccc(Cl)c(NC(=O)c2cccnc2)c1		inactive: -58.1%
COc1ccc(-n2c(=O)c(C)nc3cnc(Oc4cccc(Cl)c4)nc32)cc1	active: 15.8 µM	
CCCN(CCC)Cc1c(C(=O)OCC)nnn1-c1nonc1N		inactive: 36.5%
CC(C)[C@H](CO)Nc1nc(Nc2cc(N)cc(Cl)c2)c2ncn(C(C)C)c2n1		inactive: -33.1%
O=C1c2ccccc2-c2n[nH]c3cccc1c23		inactive: -6.67%

Compound	Potency	activation
CC1(C)CC(=O)C=C(NC2CCS(=O)(=O)C2)C1 (stereo not drawn)		inactive: 7.71%
Cc1cc(NCc2ccco2)n2c(nc3ccccc32)c1C#N		inactive: -43.6%
C=COCC1CN2C(CCC(C)C2c2ccc(Br)cc2)C(=O)O1 (stereo not drawn)		inactive: 20.1% [at 11.4 µM]
CCCC/C=C/C(NC(=O)Oc1cccc(C(F)(F)F)c1)c1ccccc1 (stereo not drawn)	active: 25.1 µM	
CN1C(=O)CS(=O)c2ccc(C(=O)NCCC3=CCCCC3)cc21 (stereo not drawn)		inactive: 2.16%
Cc1ccc2ccccc2c1[N+](=O)[O-]		inactive: -55.7%
O=C1c2ccccc2C(=O)N1CCCc1nc(-c2ccc(Cl)cc2)no1	active: 0.158 µM	
CN(C)S(=O)(=O)c1ccc(Nc2ccc(O)c3c2C(=O)c2c([N+](=O)[O-])ccc(O)c2C3=O)cc1		inactive: -46.5% [at 11.4 µM]
NCCC[C@@H](CC(=O)N[C@@H]1CCCC[C@H]1C(=O)N[C@H](CC(=O)N[C@@H](CCC(=O)O)CC(=O)O)Cc1ccccc1)NC(=O)C[C@H](Cc1ccccc1)NC(=O)[C@@H]1CCCC[C@H]1N	active: 0.0316 µM	
Cc1cccc(OCCCCCn2ccnc2)c1C	active: 31.6 µM	
Cc1cccc(NC(=O)c2sc3nc(-c4ccccc4)cn3c2C)n1	active: 25.1 µM	
COCCn1c(=N)c(C(=O)NCCc2ccc(OC)cc2)cc2c(=O)n3cccc(C)c3nc21		inactive: -55.7%
COc1ccc(CCn2c(C)cc(C(=O)CSc3nnc(N)s3)c2C)cc1	active: 25.1 µM	
CCN1CCC[C@H]1CNC(=O)c1cc(S(N)(=O)=O)ccc1OC		inactive: 1.88%
Nc1ccc(S(N)(=O)=O)cc1	inactive	
CN(C)CCC(c1ccccc1)c1ccccn1 (stereo not drawn)		inactive: -3.49%
FC(F)(F)c1cc(CO[C@@H]2CCCN[C@H]2c2ccccc2)cc(C(F)(F)F)c1		inactive: 21.7%
CC(Cc1ccccc1)C(=O)NCCO (stereo not drawn)		inactive: 37.5%
Cn1c(SCC(=O)NC2CCCC2)nnc1-c1ccc(S(=O)(=O)N2CCOCC2)cc1	active: 25.1 µM	
O=C(CN1C(=O)COc2ccccc21)N(Cc1cccnc1)Cc1cccc(F)c1	active: 15.8 µM	
CCS(=O)(=O)n1nc(NCc2cccc(OC)c2)nc1NCc1cccc(OC)c1		inactive: 15.1%
CCOC(=O)COc1ccc(S(=O)(=O)NCc2ccncc2)cc1		inactive: 14.9%
c1ccc2n[nH]nc2c1		inactive: 3.91%
C=C(C)C1CC=C(C)C(OC(C)=O)C1 (stereo not drawn)		inactive: -8.26%
COc1cccc(/C=N/n2c(C)nc3ccccc32)c1OC	active: 15.8 µM	
Cc1noc(C)c1-c1nc(NCc2ccccc2)c2ccccc2n1	active: 25.1 µM	

Compound	Potency	activation
O=C(CSCCO)Nc1cccc2ccccc12		inactive: -46.7%
COc1cc2cc3c4c(cc(OC)c(OC)c4c2cc1OC)CCN3C		inactive: -63%
O=C(c1cc2c(s1)CCCC2)N1CCN(Cc2ccc3c(c2)OCO3)CC1		inactive: -46.5%
Cc1ccc2nc3c(c(N)c2c1)CCN3c1ccccc1		inactive: -62.8%
CN(C)/C=N/c1c(C#N)cnn1-c1ncnc2sc(-c3ccccc3)cc12		inactive: 3.84%
CCN1CCN(c2c(Cl)cccc2NC(=O)c2ccc(Br)o2)CC1		inactive: -36.4%
O=C(OCc1c(Cl)nc2sccn12)c1cc2c(s1)CCCC2	active: 12.6 µM	
C[C@@H](NC(=O)/C(C#N)=C/c1ccc(O)c(O)c1)c1ccccc1		inactive: 11.2%
COc1ccc(OCC2CN3C(CCC(C)C3c3ccc(Br)cc3)C(=O)O2)cc1 (stereo not drawn)		inactive: 6.21% [at 11.4 µM]
CN1CCCCc2c1nc1ccccc1c2N (tested in a mixture with another compound)		inactive: -34%
CCCCCCc1ccc(O)cc1O		inactive: -13.2%
Cc1ccc(CC(NC(=O)c2ccccc2)C(=O)N2CCCC2C(=O)O)cc1 (stereo not drawn)		inactive: -40.5%
COc1ccccc1O	inactive	
COC(=O)c1ccc(C(NC(=O)OCc2ccccc2)/C(=C/[C@@H](C)C(=O)NCCF)c2cccnc2)cc1 (stereo partly drawn)		inactive: 7.91%
CCCCN(CC)Cc1c(C)[nH]c2ccccc2c1=O		inactive: -49.6%
Cn1c(C(C#N)C2=C(Cl)C(=O)N(c3ccccc3)C2=O)nc2ccccc21 (stereo not drawn)		inactive: -54.4%
COc1cc(NC(=O)c2ccco2)c(OC)cc1NC(=O)Nc1cccc(Cl)c1		inactive: -34.8%
N#Cc1c2c(c(N3CCN(CCO)CC3)n3c1nc1ccccc13)CCCC2		inactive: -32%
S=C(S)O[C@@H]1C[C@@H]2C[C@H]1[C@@H]1CCC[C@H]21		inactive: 4.96%
COC(=O)c1ccc(OC)c(CSc2nnc(COc3ccccc3)o2)c1	active: 12.6 µM	
OC(CN1CCOCC1)Cn1c(-c2cccc(Cl)c2)nc2ccccc21 (stereo not drawn)		inactive: -55.8%
COc1ccccc1N1CCN(C/C(O)=C(\C#N)c2nc(-c3ccccc3)cs2)CC1		inactive: -33.1%
CCc1ccc(C(c2ccc(CC)cc2)C(Cl)Cl)cc1		inactive: 13.6%
COC(=O)c1[nH]c2c(c1C)C(=O)CCC2		inactive: -49.1%
CN(C)CC/C=C1\c2ccccc2COc2ccccc21	inactive	
